# Article PMC4336329 (PLoS ONE, 2015)
# Out of some 310,000 compounds screened, about 2,200 (0.71%) showed an effect of 50% or more. The effect is printed as a negative number. The list shows a part of the results.
# Target: human ether-à-go-go-related gene (hERG) potassium channel (human, UniProt Q12809)
# Assay: primary screen, population patch clamp on CHO cells stably expressing hERG
# Chain of human ether-à-go-go-related gene (hERG) potassium channel (Q12809 whole entry, looked up): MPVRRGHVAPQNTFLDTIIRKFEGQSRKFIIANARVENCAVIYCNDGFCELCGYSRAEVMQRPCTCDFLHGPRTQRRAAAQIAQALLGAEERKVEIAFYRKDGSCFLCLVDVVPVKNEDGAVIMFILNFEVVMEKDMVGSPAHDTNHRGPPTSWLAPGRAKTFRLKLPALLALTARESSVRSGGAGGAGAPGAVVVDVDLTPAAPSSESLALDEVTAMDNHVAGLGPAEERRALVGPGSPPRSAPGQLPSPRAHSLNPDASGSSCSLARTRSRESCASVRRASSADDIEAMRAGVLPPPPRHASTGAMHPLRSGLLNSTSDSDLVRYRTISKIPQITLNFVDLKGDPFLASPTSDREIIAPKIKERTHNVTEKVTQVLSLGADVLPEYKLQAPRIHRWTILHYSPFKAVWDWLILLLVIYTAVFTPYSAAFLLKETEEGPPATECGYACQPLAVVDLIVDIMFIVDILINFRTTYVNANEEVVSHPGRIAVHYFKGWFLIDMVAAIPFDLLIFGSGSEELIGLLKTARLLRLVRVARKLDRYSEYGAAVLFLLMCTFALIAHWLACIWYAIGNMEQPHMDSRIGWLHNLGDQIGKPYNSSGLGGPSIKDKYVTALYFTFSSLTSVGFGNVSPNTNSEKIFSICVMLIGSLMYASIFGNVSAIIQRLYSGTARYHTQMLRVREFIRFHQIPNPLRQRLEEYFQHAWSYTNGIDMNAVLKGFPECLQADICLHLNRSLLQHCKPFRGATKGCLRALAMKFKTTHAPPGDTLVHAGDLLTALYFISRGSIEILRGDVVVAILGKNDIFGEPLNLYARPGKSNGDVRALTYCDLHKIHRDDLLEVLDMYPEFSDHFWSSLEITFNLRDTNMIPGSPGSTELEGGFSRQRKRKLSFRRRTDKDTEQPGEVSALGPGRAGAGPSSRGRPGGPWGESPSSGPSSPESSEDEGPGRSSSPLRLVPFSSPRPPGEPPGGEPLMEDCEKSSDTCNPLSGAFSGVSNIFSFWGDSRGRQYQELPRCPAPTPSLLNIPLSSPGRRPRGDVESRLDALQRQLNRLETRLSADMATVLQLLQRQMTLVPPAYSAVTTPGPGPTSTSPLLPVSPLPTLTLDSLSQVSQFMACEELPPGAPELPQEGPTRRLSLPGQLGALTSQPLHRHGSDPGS
row,Structure (SMILES),"hERG current change (%, negative = inhibition) at 1uM [%]"
1,O=C(N/N=C/c1cccc([N+](=O)[O-])c1O)C(O)(c1ccccc1)c1ccccc1,18.6
2,CC(C)CNc1ncnc2c1sc1nc(N3CCOCC3)c3c(c12)CC(C)(C)OC3,9.68
3,CCN(c1ccccc1)S(=O)(=O)c1ccc(OC)c(NC(=O)CNC)c1.O=C(O)C(=O)O,14.6
4,COc1cc(NC(=O)c2ccccn2)cc(OC)c1OC,7.6
5,O=C(COC(=O)c1ccc[nH]c1=O)NC1CCCCC1,9.19
6,Cc1ccc(-c2ocnc2C(=O)N2CCN(C(=O)c3cccs3)CC2)cc1,7.87
7,c1ccc(-c2ncc(CSc3nncn3-c3ccccc3)s2)cc1,3.87
8,CCOc1ccc(CC(=O)N/N=C/c2cccnc2)cc1,12.3
9,CCN(CCCNC(=O)c1nn(C)c2c1CS(=O)(=O)c1ccccc1-2)Cc1ccccc1,-3.66
10,COc1ccc(/C=C2\SC(=N)N(c3ccc(F)cc3)C2=O)cc1,-0.313
11,CCOc1cc2[nH]c(=O)n(CC3CCC(C(=O)NCCCOC)CC3)c(=O)c2cc1OCC (stereo not drawn),14.1
12,Cc1ccc(CN2CC(C(=O)Nc3ccc4c(C)cc(=O)oc4c3)CC2=O)cc1 (stereo not drawn),8.21
13,CCOC(=O)C1CCN(C(=O)COC(=O)COc2ccc(Cl)cc2)CC1,14.9
14,COC(=O)[C@H](CCSC)NC(=O)Nc1cc(C)ccc1C,11.7
15,CCC1CCc2sc(C(=O)NNC(=O)c3ccncc3)cc2C1 (stereo not drawn),-9.41
16,CCC(C)C(NC(=O)C1CCC(C)CC1)C(=O)NCCc1ccc(S(N)(=O)=O)cc1 (stereo not drawn),11.6
17,CCCCNC(=O)O/N=C(\N)CS(=O)(=O)C(C)(C)C,4.15
18,COc1ccc(CNC(=O)/C=C/c2cc3c(cc2Br)OCO3)cc1,9.24
19,CCc1cc2c(C)cc(C)cc2nc1SCC(=O)Nc1cc(C)on1,6.67
20,O=C(Nc1nc(-c2ccc3c(c2)Cc2ccccc2-3)cs1)c1ccccc1,14.1
21,CCCOc1ccc(-c2nc(-c3ccc([N+](=O)[O-])cc3)cs2)cc1,17.4
22,O=C(CSc1ncnc2c1nnn2Cc1ccc(F)cc1)NCC1CCCO1 (stereo not drawn),-5.85
23,COc1cc(CCNc2ccc3nnc(-c4ccccc4)n3n2)cc(OC)c1OC,8.03

row,Structure (SMILES),"hERG current change (%, negative = inhibition) at 1uM [%]"
1,C=CCN(c1ccc(C(=O)N2CCN(c3ccc(F)cc3)CC2)cc1)S(C)(=O)=O,-10.7
2,Cc1[nH]c2ccccc2c1C(c1ccccn1)N1CCC(C)CC1 (stereo not drawn),-7.79
3,COc1ccc2[nH]c3c(Cl)ncnc3c2c1,13
4,CC1CCN(c2ccc(NC(=O)c3ccc(Br)o3)cc2)CC1,2.79
5,CCOC(=O)C1(Cc2ccccc2)CCCN(S(=O)(=O)N(C)C)C1 (stereo not drawn),6.63
6,COc1ccc(OCC(=O)Nc2nc3c(s2)CCCC3)cc1,8.14
7,O=C(Oc1cc(Cl)ccc1Cl)c1ccc(N2CCOCC2)c([N+](=O)[O-])c1,6.97
8,CCOc1cc(/C=N/NC(=O)COc2ccccc2C)ccc1OC(=O)c1cccs1,3.1
9,CC#CC(=O)N1CCC(CO)(CCc2ccccc2)CC1,1.33
10,COc1ccc(NC(=O)CCCn2c(=S)[nH]c3ccccc3c2=O)cc1,10.7
11,CCn1c(SCc2nc3ccccc3[nH]2)nnc1-c1cccnc1,9.55
12,O=C1CCN(C(=O)/C=C/c2ccccc2)c2ccccc21,7.67
13,COc1cccc(OC)c1Oc1ccc(C(F)(F)F)cn1,7.58
14,Cc1ccc(C)c(N(CC(=O)NC2CCCCC2)C(=O)c2csnn2)c1,16.5
15,CCOC(=O)CC(=O)Nc1c(C)cc(C)cc1C,-2.24
16,c1ccc(-c2cc(-c3ccccc3)n3ncnc3n2)cc1,7.3
17,CCOC(=O)C1=C(N)Oc2cc(C)n(CCc3ccc(OC)c(OC)c3)c(=O)c2C1c1cccnc1 (stereo not drawn),-3.42
18,CCC1CCCCN1S(=O)(=O)c1ccc(NC(=O)C2CCN(C(=O)c3ccco3)CC2)cc1 (stereo not drawn),16.4
19,CCOC(=O)c1c(N)sc(C(C)=O)c1C,9.14
20,CCn1c(SCC(=O)Nc2nonc2C)nnc1-c1ccco1,3.45
21,CC(C)NC(=O)CSc1nc2ccccc2c(=O)n1CCCOC(C)C,12.4
22,N#Cc1cc([N+](=O)[O-])cnc1NCC(O)CO (stereo not drawn),-1.12
